# Assay results as given in article PMC4336329 (PLoS ONE, 2015).
# Hit rate of the full screen: of about 310,000 compounds, about 2,200 (0.71%) showed an effect of 50% or more. Effects have a minus sign here. This is one part of the list.
# Target: human ether-à-go-go-related gene (hERG) potassium channel (human, UniProt Q12809)
# Test: primary screen, population patch clamp on CHO cells stably expressing hERG
# Sequence of human ether-à-go-go-related gene (hERG) potassium channel (Q12809 whole entry, looked up): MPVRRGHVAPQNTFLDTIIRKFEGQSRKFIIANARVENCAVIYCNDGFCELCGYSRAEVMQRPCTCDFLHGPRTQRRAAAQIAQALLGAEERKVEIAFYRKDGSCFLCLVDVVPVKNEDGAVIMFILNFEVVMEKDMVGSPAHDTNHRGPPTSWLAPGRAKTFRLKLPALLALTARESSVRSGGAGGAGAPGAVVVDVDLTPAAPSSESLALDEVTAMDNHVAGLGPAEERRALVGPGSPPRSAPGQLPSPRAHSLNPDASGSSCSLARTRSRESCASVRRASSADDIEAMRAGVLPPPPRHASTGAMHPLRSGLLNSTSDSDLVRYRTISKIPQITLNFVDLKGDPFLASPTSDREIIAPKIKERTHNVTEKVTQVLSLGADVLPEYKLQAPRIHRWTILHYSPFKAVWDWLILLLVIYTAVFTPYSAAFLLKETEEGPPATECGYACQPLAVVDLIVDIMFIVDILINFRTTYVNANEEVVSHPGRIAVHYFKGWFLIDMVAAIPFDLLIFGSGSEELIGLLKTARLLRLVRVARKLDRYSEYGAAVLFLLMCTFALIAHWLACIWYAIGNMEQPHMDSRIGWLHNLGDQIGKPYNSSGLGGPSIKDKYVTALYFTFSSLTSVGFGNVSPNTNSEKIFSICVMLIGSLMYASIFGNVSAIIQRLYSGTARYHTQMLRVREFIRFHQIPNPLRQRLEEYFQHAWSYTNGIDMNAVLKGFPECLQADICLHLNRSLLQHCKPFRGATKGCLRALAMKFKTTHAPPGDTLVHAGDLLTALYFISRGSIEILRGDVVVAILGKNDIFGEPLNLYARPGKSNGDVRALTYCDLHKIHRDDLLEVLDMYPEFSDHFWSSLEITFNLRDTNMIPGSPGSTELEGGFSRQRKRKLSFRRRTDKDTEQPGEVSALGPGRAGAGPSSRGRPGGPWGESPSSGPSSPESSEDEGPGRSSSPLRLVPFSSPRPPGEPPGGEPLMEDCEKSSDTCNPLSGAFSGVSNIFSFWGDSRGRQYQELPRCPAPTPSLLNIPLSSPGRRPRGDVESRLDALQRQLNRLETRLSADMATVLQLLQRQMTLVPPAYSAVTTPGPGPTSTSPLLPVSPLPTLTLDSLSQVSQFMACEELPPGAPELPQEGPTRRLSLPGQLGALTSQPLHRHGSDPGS
row,SMILES,"hERG current change (%, negative = inhibition) at 1uM"
1,COC(=O)C1CC(Cl)CN1c1ncc(C(F)(F)F)cc1Cl (centres unmarked),15.5%
2,COc1ccc2[nH]c(=O)c(CN(CCc3cccc(C)c3)C(C)=O)cc2c1,0.592%
3,COc1ccc(NC(=O)CCS(=O)(=O)c2ccc3c(c2)oc(=O)n3C)cc1OC,14.2%
4,O=C(Nc1ccccn1)c1cc2ccccc2cc1O,17%
5,COc1ccccc1/C=C1\SC(=S)N(CCC(=O)Nc2cc(C)on2)C1=O,13.3%
6,Cc1nc(-c2ccccc2)sc1C(=O)CSc1ccc(Br)cc1,10.2%
7,CC(=O)Nc1ccc(NC(=O)CC2SC(=O)N(CC(=O)c3ccccc3)C2=O)cc1 (centres unmarked),8.07%
8,COCCn1c(N)c(N(Cc2ccccc2)C(=O)c2ccc(-c3ccc(Cl)cc3)o2)c(=O)[nH]c1=O,0.709%
9,O=C(O)c1cnn(-c2ccccc2)c1-c1ccncc1,10.8%
10,COc1c(Cl)cc(Cl)cc1C(=O)Nc1ccc(NC(=O)c2cccs2)cc1,15.5%
11,O=C(CSCc1ccccc1)NNc1c(F)c(F)cc(F)c1F,11.9%
12,COc1ccc(-c2nnc(SCc3cc(C)ccc3C)n2N)cc1,0.154%
13,O=C(Nc1ccc(C(=O)N2CCC([NH+]3CCOCC3)CC2)cc1)c1ccc(Br)o1.O=C(O)C(F)(F)F,10.4%
14,CC1CCCN(C(=O)COC(=O)CSc2ccc(C(N)=O)cc2[N+](=O)[O-])C1 (centres unmarked),7.65%
15,N#CCCN(C(=O)CN1C(=O)NC2(CCCC2)C1=O)c1ccccc1F,8.67%
16,COc1ccc(OC)c(C2C(C(=O)c3sc(C)nc3C)=C(O)C(=O)N2CCN2CCOCC2)c1 (centres unmarked),20.7%
17,O=C(NCc1ccncc1)c1ccc(Br)cc1,1.23%
18,Cc1nc2c(-c3ccc(F)cc3)c(C)nn2c(C)c1CCC(=O)N1CCC2(CC1)OCCO2,-33.2%
19,CC(C)(C)OC(=O)NCCCCCNC(=O)c1[nH]cnc1C(=O)NC1CCN(C(=O)OC(C)(C)C)CC1,-13.1%
20,N#CCC(=O)Nc1ccc(C(=O)OCC(=O)N=c2sccn2Cc2ccccc2Cl)cc1,8.25%
21,O=C(CSc1nnc(-c2ccccc2)o1)N1CCN(c2ccccc2)CC1,21.4%
22,COc1ccc(CNC(=O)CCCn2nc(C)c3c(C)n(-c4ccc(C)cc4)nc3c2=O)cc1OC,10.9%

row,SMILES,"hERG current change (%, negative = inhibition) at 1uM"
1,CCOC(=O)C1CCN(C(=O)CCS(=O)(=O)c2ccc3c(c2)CCN3C(C)=O)CC1,17.6%
2,CCOc1ccc(-n2ccnc(SCC(=O)NCc3cccc(OC)c3)c2=O)cc1,6.35%
3,O=C(c1cc2c(s1)CCCC2)N1CCN(c2ccccc2)CC1,10.9%
4,COc1ccc(NC2CC(=O)N(C(C)C)C2=O)cc1 (centres unmarked),14.8%
5,CC1Cc2cc(S(=O)(=O)N3CCC(C(=O)NCc4ccco4)CC3)ccc2N1C(=O)C1CCC1 (centres unmarked),22.5%
6,CCN(CC)CC#CCC(O)(c1ccccc1)C1CCCCC1.Cl (centres unmarked),-3.04%
7,Cn1cnnc1SCc1ccc(C(=O)NN)cc1,-3.34%
8,COc1ccc(C(=O)CSc2nnc(-c3ccco3)n2C)cc1,7.43%
9,COc1cc(C(=O)Nc2cccc(-c3nc4cc(C)ccc4o3)c2)cc(OC)c1OC,10.6%
10,COc1ccc(CNc2nc3ccccc3n2C)c(OC)c1,-3.26%
11,CCc1c(C)c2ccc(OCC(=O)N(C)C)c(C)c2oc1=O,5.4%
12,O=C1CN(CC(=O)Nc2cccc(Cl)c2Cl)c2ccccc2N1,7.89%
13,Cc1c2c(nc3ccccc13)CC(C)(C)CC2=O.Cl,6.54%
14,COc1ccc(C)cc1NC(=O)CCNS(=O)(=O)c1cccc(C(F)(F)F)c1,7.5%
15,NC(=S)Nc1cc2ccccc2c2ccccc12,4.88%
16,COc1ccc(S(=O)(=O)N2CCCC2C(=O)n2nc(C)cc2C)cc1 (centres unmarked),3.7%
17,COc1ccc(CN(CC(=O)NC(C)C)C(=O)CCC(=O)Nc2nccs2)cc1,11.9%
18,CN(NC1OC(=O)c2ccccc21)c1ccc(C(F)(F)F)cc1[N+](=O)[O-] (centres unmarked),19%
19,CC(=O)Nc1ccc(NC(=O)c2cc(-c3cc(C)cc(C)c3O)n[nH]2)cc1,14.6%
20,COC(=O)c1c(NC(=O)CSc2nc3nc(C)cc(C)n3n2)sc(C)c1C,11.2%
21,CCOC(=O)c1ccccc1N=Cc1c(O)c2ccccc2oc1=O,19.3%
22,N#Cc1ccc(-c2ccc(OCC(O)CN3CCCCC3)cc2)cc1 (centres unmarked),-52.1%

row,SMILES,"hERG current change (%, negative = inhibition) at 1uM"
1,CCn1c(O)c(/C=C2\C=Nc3ccccc32)sc1=O,11.4%
2,CC1CN(C(=O)c2cc3cc([N+](=O)[O-])ccc3oc2=O)CC(C)O1 (centres unmarked),3.81%
3,Cc1cc(=O)[nH]c(SCc2nc3ccccc3n2Cc2ccccc2)n1,4.81%
4,C=CCNC(=O)c1onc(CCl)c1C(=O)OC,10.7%
5,CN1/C(=C\C=C\C2=[N+](C)c3ccc4ccccc4c3C2(C)C)C(C)(C)c2ccccc21.[O-][Cl+3]([O-])([O-])[O-],-43.6%
6,COc1ccc(OC)c(-c2cc(C(=O)Nc3c(C)nn(Cc4ccccc4Cl)c3C)no2)c1,8.79%
7,CC1(C)CC(=O)C2=C(C1)Nc1ncnn1C2c1ccccn1 (centres unmarked),13.2%
8,CCC(c1nnc(SCC(=O)NNC(=O)c2ccccc2)n1Cc1ccccc1)N(C)C (centres unmarked),16.7%
9,CCC1CCCCN1CCN1C(=O)C2C(C(=O)Nc3cccc(OC)c3)C3C=CC2(O3)C1C(=O)NC1CCCCC1 (centres unmarked),8.14%
10,Cc1ccc(NC(=O)CSCC(=O)Nc2cc(Cl)ccc2N2CCOCC2)cc1,9.6%
11,CS(=O)(=O)N(CC(=O)N1CCc2ccccc2C1)c1ccc(Cl)cc1F,5.07%
12,O=C1c2ccccc2CC1Sc1nnc(-c2ccncc2)o1 (centres unmarked),-1.21%
13,O=C1CCC(C(=O)Nc2cccc(C(F)(F)F)c2)N1 (centres unmarked),11.1%
14,O=[N+]([O-])c1cccc(-c2ccc(/C=N/NC(=S)NCc3ccco3)o2)c1,14.7%
15,O=[N+]([O-])c1ccc(/C=N/NC(=S)Nc2ccccc2)o1,13.6%
16,CCCCN1C(=O)N(c2ccc(Cl)cc2)C(C)(O)CC1(C)C (centres unmarked),12.7%
17,Cc1cccc(N2CCN(C(=O)c3cccc(N4C(=O)C5C6C=CC(C6)C5C4=O)c3)CC2C)c1 (centres unmarked),14.1%
18,COc1ccc2c(-c3ccccc3)cc(SCC(=O)N(C)C3CCS(=O)(=O)C3)nc2c1 (centres unmarked),-13.2%
19,COc1ccc(S(=O)(=O)NC2CCCCC2)cc1F,5.51%
20,O=S(=O)(Nc1ccc2c(c1)nc1n2CCN(Cc2ccccc2)C1)c1ccc(Cl)cc1,14.8%
21,O=C(CCn1c(=O)sc2ccccc21)NC1CCCCC1,12.2%
22,CCCCCCNCC1OCc2ccccc2CO1,-7.32%

row,SMILES,"hERG current change (%, negative = inhibition) at 1uM"
1,O=C(CCc1ccccc1)NNC(=O)c1ccc(NC(=O)c2ccccc2)cc1,2.85%
2,Cc1nn2c(CN(C(=O)CN3CCOCC3)c3ccccc3)nnc2c2ccccc12,4.2%
3,CCCS(=O)(=O)N1CCCC(C(=O)NC2CCCCC2)C1 (centres unmarked),7.22%
4,Cc1ccc(CNC(=O)COc2ccc(C(=O)c3ccc(F)cc3)cc2)cc1,9.34%
5,COc1ccc(CC(=O)Nc2ccc(-c3csc(C)n3)cc2)cc1,0.945%
6,CC1C/C(=N/Nc2nc3ccccc3[nH]2)CC(C)(C)C1 (centres unmarked),2.13%
7,CNC[C@H](CC1CCCCC1)NC[C@H](CO)NCC1(c2ccccc2)CC1,16.5%
8,O=C(NCCCN1CCCC1=O)C1CCN(S(=O)(=O)c2cccc(Cl)c2Cl)CC1,-1.96%
9,C=CCn1c(N2CCCCCC2)nc2c1c(=O)n(C)c(=O)n2C,4.47%
10,COc1ccc(NC(=O)COC(=O)c2cc(C)oc2C)cc1OC,11.5%
11,COc1cc2c(cc1OC)CN(CC(=O)Nc1cccc([N+](=O)[O-])c1)CC2,2.77%
12,CC(=O)Nc1ccc(S(=O)(=O)NNC2=NS(=O)(=O)c3ccccc32)cc1,9.28%
13,Cc1cc(N(CC(=O)O)S(C)(=O)=O)ccc1Br,9.49%
14,COc1ccc(C(=O)c2c[nH]c(C(=O)NCc3cccs3)c2)cc1,4.98%
15,Cc1nn(CCC#N)c2c1P(=S)(N1CCCC1)OC(c1ccc(F)cc1)=N2 (centres unmarked),-0.612%
16,COC(=O)Cc1c(C)c2ccc(OCC(C)=O)c(C)c2oc1=O,4.3%
17,O=C(OCc1ccc2c(c1)OCO2)c1ccc(S(=O)(=O)N2CCCCC2)cc1,3.84%
18,Cc1cc(C)c(C#N)c(N2CCN(C(=O)C3COc4ccccc4O3)CC2)n1 (centres unmarked),-1.46%
19,CCCOc1ccc(N2C(=O)CC(N3CCC(c4nc5ccccc5o4)CC3)C2=O)cc1 (centres unmarked),5.39%
20,Cc1ccc(NC(=O)N(Cc2cccs2)Cc2cc3cc4c(cc3[nH]c2=O)OCO4)cc1,13%
